From the supplement of paper PMC10369915 come the findings set out here.

This is one part of the list. No stated cut-off is given here; in the data, active = 3.2 or more and inactive = the rest. Most of these values are background signal.
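Further: displayed peptides selected on beads carrying the immobilized SH2 domain, with library peptides lacking any tyrosine serving as negative controls.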

In the first test the target is SHP2 C-SH2 domain E139D. Put plainly: enrichment score (SH2-bound / input frequency) (ratio); bacterial display of known human phosphotyrosine sites (pTyr-Var adds point mutants) read by sequencing; higher = stronger binding; tyrosines were phosphorylated by kinases first. Conditions: peptide library: Human pTyr.
In the case of SSGGEQDYDYLNDWG [CDH2_HUMAN_884], the enrichment score was inactive: 0.723.

Turning to KQPIPAAYNRADQER [CDC73_HUMAN_290_YA], the enrichment score was inactive: 0.975.

Turning to TQEQAELYCEMGSTF [CBL_HUMAN_371_YA], the enrichment score was inactive: 1.29.

Consider SEEQLQLYWAMDSTF [CBLC_HUMAN_341], for which the enrichment score was inactive: 1.37.

Regarding EMDEELHYASLNFHG [CD33_HUMAN_340], the enrichment score was inactive: 1.7.

VSRSAAEYLLSSLIN [ABL2_HUMAN_185]: the enrichment score was inactive: 1.04.

For DTAGQEDYDRLRPLS [CDC42_HUMAN_64], the enrichment score is inactive: 0.54.

DIDQTATYEDIVTLR [CD79B_HUMAN_207]: the enrichment score was inactive: 0.909.

With VEEDDDEYKIPSSHP [CBLB_HUMAN_709], the enrichment score is inactive: 1.11.

As for VDSEGHLYTVPIREQ [CAV1_HUMAN_14], the enrichment score was inactive: 0.668.

On to KRNKPTVYGVSPNAD [ABL1_HUMAN_226_YA], for which the enrichment score was inactive: 0.922.

On to DSTDNDDYDDISAAG [CD6_HUMAN_662], for which the enrichment score was inactive: 1.35.

With SKDTSTEYSEVRTQG [CD33_HUMAN_358], the enrichment score was inactive: 1.49.

Regarding ENGGGQGYSSGPGTS [CD34_HUMAN_339], the enrichment score is inactive: 0.633.

Consider YGSPLKAYTPVVVTL [CD11B_HUMAN_594], for which the enrichment score was inactive: 1.7.

With TKYNQELYTTHGLIK [CC105_HUMAN_372], the enrichment score is inactive: 1.04.

For SRGLQGTYQDVGSLN [CD79A_HUMAN_210], the enrichment score was inactive: 0.845.

AEDQEPTYCNMGHLS [CD300LF_HUMAN_263]: the enrichment score is inactive: 1.06.

The target of the next test is SHP2 C-SH2 domain wild-type. The test is described as above. The note with it: peptide library: Human pTyr.
SSGGEQDYDYLNDWG [CDH2_HUMAN_884]: the enrichment score is inactive: 0.628.

With KQPIPAAYNRADQER [CDC73_HUMAN_290_YA], the enrichment score is inactive: 1.09.

Take TQEQAELYCEMGSTF [CBL_HUMAN_371_YA]: the enrichment score is inactive: 1.03.

For the molecule SEEQLQLYWAMDSTF [CBLC_HUMAN_341], the enrichment score is inactive: 1.27.

As for EMDEELHYASLNFHG [CD33_HUMAN_340], the enrichment score is inactive: 2.86.

Turning to VSRSAAEYLLSSLIN [ABL2_HUMAN_185], the enrichment score was inactive: 0.929.

Turning to DTAGQEDYDRLRPLS [CDC42_HUMAN_64], the enrichment score is inactive: 0.487.

As to DIDQTATYEDIVTLR [CD79B_HUMAN_207], the enrichment score is inactive: 0.697.

As to VEEDDDEYKIPSSHP [CBLB_HUMAN_709], the enrichment score was inactive: 1.06.

VDSEGHLYTVPIREQ [CAV1_HUMAN_14]: the enrichment score was inactive: 0.612.

With KRNKPTVYGVSPNAD [ABL1_HUMAN_226_YA], the enrichment score was inactive: 0.82.

DSTDNDDYDDISAAG [CD6_HUMAN_662]: the enrichment score is inactive: 1.08.

As for SKDTSTEYSEVRTQG [CD33_HUMAN_358], the enrichment score is inactive: 3.18.

In the case of ENGGGQGYSSGPGTS [CD34_HUMAN_339], the enrichment score is inactive: 0.524.

For the molecule YGSPLKAYTPVVVTL [CD11B_HUMAN_594], the enrichment score was inactive: 2.2.

Regarding TKYNQELYTTHGLIK [CC105_HUMAN_372], the enrichment score is inactive: 0.968.

Regarding SRGLQGTYQDVGSLN [CD79A_HUMAN_210], the enrichment score is inactive: 0.646.

With AEDQEPTYCNMGHLS [CD300LF_HUMAN_263], the enrichment score is inactive: 0.776.

In another test the target is SHP2 N-SH2 domain L43F. The description is as above. Conditions: peptide library: Human pTyr.
SSGGEQDYDYLNDWG [CDH2_HUMAN_884]: the enrichment score is inactive: 0.781.

Regarding KQPIPAAYNRADQER [CDC73_HUMAN_290_YA], the enrichment score was inactive: 0.787.

For the molecule TQEQAELYCEMGSTF [CBL_HUMAN_371_YA], the enrichment score was inactive: 1.

Turning to SEEQLQLYWAMDSTF [CBLC_HUMAN_341], the enrichment score was inactive: 1.24.

On to EMDEELHYASLNFHG [CD33_HUMAN_340], for which the enrichment score is active: 13.9.

Consider VSRSAAEYLLSSLIN [ABL2_HUMAN_185], for which the enrichment score is inactive: 0.954.

As to DTAGQEDYDRLRPLS [CDC42_HUMAN_64], the enrichment score is inactive: 0.828.

Consider DIDQTATYEDIVTLR [CD79B_HUMAN_207], for which the enrichment score was inactive: 0.953.

As to VEEDDDEYKIPSSHP [CBLB_HUMAN_709], the enrichment score is inactive: 1.04.

With VDSEGHLYTVPIREQ [CAV1_HUMAN_14], the enrichment score is inactive: 0.725.

KRNKPTVYGVSPNAD [ABL1_HUMAN_226_YA]: the enrichment score is inactive: 0.805.

As for DSTDNDDYDDISAAG [CD6_HUMAN_662], the enrichment score was inactive: 1.48.

Turning to SKDTSTEYSEVRTQG [CD33_HUMAN_358], the enrichment score was inactive: 0.792.

Turning to ENGGGQGYSSGPGTS [CD34_HUMAN_339], the enrichment score was inactive: 0.553.

As to YGSPLKAYTPVVVTL [CD11B_HUMAN_594], the enrichment score was inactive: 1.16.

For the molecule TKYNQELYTTHGLIK [CC105_HUMAN_372], the enrichment score was inactive: 1.

Take SRGLQGTYQDVGSLN [CD79A_HUMAN_210]: the enrichment score is inactive: 0.61.

Consider AEDQEPTYCNMGHLS [CD300LF_HUMAN_263], for which the enrichment score is inactive: 0.89.

In another test the target is SHP2 N-SH2 domain T42A. Described as above. Conditions: peptide library: Human pTyr.
SSGGEQDYDYLNDWG [CDH2_HUMAN_884]: the enrichment score is inactive: 0.65.

Consider KQPIPAAYNRADQER [CDC73_HUMAN_290_YA], for which the enrichment score is inactive: 0.945.

As for TQEQAELYCEMGSTF [CBL_HUMAN_371_YA], the enrichment score was inactive: 1.06.

For the molecule SEEQLQLYWAMDSTF [CBLC_HUMAN_341], the enrichment score was inactive: 1.49.

As to EMDEELHYASLNFHG [CD33_HUMAN_340], the enrichment score is active: 7.63.

For the molecule VSRSAAEYLLSSLIN [ABL2_HUMAN_185], the enrichment score was inactive: 0.845.

As for DTAGQEDYDRLRPLS [CDC42_HUMAN_64], the enrichment score was inactive: 0.496.

Turning to DIDQTATYEDIVTLR [CD79B_HUMAN_207], the enrichment score was inactive: 1.16.

For VEEDDDEYKIPSSHP [CBLB_HUMAN_709], the enrichment score is inactive: 1.22.

Take VDSEGHLYTVPIREQ [CAV1_HUMAN_14]: the enrichment score is inactive: 0.584.

For KRNKPTVYGVSPNAD [ABL1_HUMAN_226_YA], the enrichment score is inactive: 0.83.

DSTDNDDYDDISAAG [CD6_HUMAN_662]: the enrichment score is inactive: 1.05.

For the molecule SKDTSTEYSEVRTQG [CD33_HUMAN_358], the enrichment score is inactive: 0.974.

Take ENGGGQGYSSGPGTS [CD34_HUMAN_339]: the enrichment score was inactive: 0.576.

Consider YGSPLKAYTPVVVTL [CD11B_HUMAN_594], for which the enrichment score is inactive: 2.63.

In the case of TKYNQELYTTHGLIK [CC105_HUMAN_372], the enrichment score is inactive: 0.957.

In the case of SRGLQGTYQDVGSLN [CD79A_HUMAN_210], the enrichment score is inactive: 0.574.

For the molecule AEDQEPTYCNMGHLS [CD300LF_HUMAN_263], the enrichment score is inactive: 0.824.

In the next test the target is SHP2 N-SH2 domain T52S. Described as above. The note with it: peptide library: Human pTyr.
Take SSGGEQDYDYLNDWG [CDH2_HUMAN_884]: the enrichment score was inactive: 0.655.

On to KQPIPAAYNRADQER [CDC73_HUMAN_290_YA], for which the enrichment score was inactive: 1.11.

Consider TQEQAELYCEMGSTF [CBL_HUMAN_371_YA], for which the enrichment score is inactive: 1.1.

As to SEEQLQLYWAMDSTF [CBLC_HUMAN_341], the enrichment score is inactive: 1.59.

Turning to EMDEELHYASLNFHG [CD33_HUMAN_340], the enrichment score was active: 8.72.

Turning to VSRSAAEYLLSSLIN [ABL2_HUMAN_185], the enrichment score is inactive: 1.16.

Turning to DTAGQEDYDRLRPLS [CDC42_HUMAN_64], the enrichment score is inactive: 0.536.

Regarding DIDQTATYEDIVTLR [CD79B_HUMAN_207], the enrichment score is inactive: 0.73.

As to VEEDDDEYKIPSSHP [CBLB_HUMAN_709], the enrichment score is inactive: 1.17.

VDSEGHLYTVPIREQ [CAV1_HUMAN_14]: the enrichment score is inactive: 0.513.

For KRNKPTVYGVSPNAD [ABL1_HUMAN_226_YA], the enrichment score was inactive: 0.805.

For the molecule DSTDNDDYDDISAAG [CD6_HUMAN_662], the enrichment score was inactive: 1.33.

For the molecule SKDTSTEYSEVRTQG [CD33_HUMAN_358], the enrichment score was inactive: 0.696.

ENGGGQGYSSGPGTS [CD34_HUMAN_339]: the enrichment score was inactive: 0.561.

Regarding YGSPLKAYTPVVVTL [CD11B_HUMAN_594], the enrichment score is inactive: 1.24.

With TKYNQELYTTHGLIK [CC105_HUMAN_372], the enrichment score was inactive: 1.51.

SRGLQGTYQDVGSLN [CD79A_HUMAN_210]: the enrichment score is inactive: 0.599.

Consider AEDQEPTYCNMGHLS [CD300LF_HUMAN_263], for which the enrichment score was inactive: 1.17.

The target in the next test is SHP2 N-SH2 domain wild-type. The test is described as above. Conditions: peptide library: Human pTyr.
As to SSGGEQDYDYLNDWG [CDH2_HUMAN_884], the enrichment score is inactive: 0.848.

KQPIPAAYNRADQER [CDC73_HUMAN_290_YA]: the enrichment score was inactive: 1.14.

Consider TQEQAELYCEMGSTF [CBL_HUMAN_371_YA], for which the enrichment score was inactive: 1.29.

Regarding SEEQLQLYWAMDSTF [CBLC_HUMAN_341], the enrichment score is inactive: 1.53.

In the case of EMDEELHYASLNFHG [CD33_HUMAN_340], the enrichment score is active: 3.77.

For VSRSAAEYLLSSLIN [ABL2_HUMAN_185], the enrichment score was inactive: 1.1.

On to DTAGQEDYDRLRPLS [CDC42_HUMAN_64], for which the enrichment score was inactive: 0.575.

On to DIDQTATYEDIVTLR [CD79B_HUMAN_207], for which the enrichment score was inactive: 0.789.

With VEEDDDEYKIPSSHP [CBLB_HUMAN_709], the enrichment score was inactive: 1.2.

With VDSEGHLYTVPIREQ [CAV1_HUMAN_14], the enrichment score is inactive: 0.77.

KRNKPTVYGVSPNAD [ABL1_HUMAN_226_YA]: the enrichment score was inactive: 0.854.

Regarding DSTDNDDYDDISAAG [CD6_HUMAN_662], the enrichment score is inactive: 1.35.

As to SKDTSTEYSEVRTQG [CD33_HUMAN_358], the enrichment score was inactive: 0.869.

For ENGGGQGYSSGPGTS [CD34_HUMAN_339], the enrichment score is inactive: 0.653.

As for YGSPLKAYTPVVVTL [CD11B_HUMAN_594], the enrichment score is inactive: 1.48.

On to TKYNQELYTTHGLIK [CC105_HUMAN_372], for which the enrichment score was inactive: 1.25.

Consider SRGLQGTYQDVGSLN [CD79A_HUMAN_210], for which the enrichment score was inactive: 0.703.

On to AEDQEPTYCNMGHLS [CD300LF_HUMAN_263], for which the enrichment score is inactive: 1.08.
